This passage reports binding signal results from article PMC7819943, “Rice protein-binding microarrays: a tool to detect cis-acting elements near promoter regions in rice”.

The other results are listed elsewhere or left out.

This assay deals with T1, OsWOX13 (Oryza sativa, UniProt Q5QMM3 1-267).
T1 sequence: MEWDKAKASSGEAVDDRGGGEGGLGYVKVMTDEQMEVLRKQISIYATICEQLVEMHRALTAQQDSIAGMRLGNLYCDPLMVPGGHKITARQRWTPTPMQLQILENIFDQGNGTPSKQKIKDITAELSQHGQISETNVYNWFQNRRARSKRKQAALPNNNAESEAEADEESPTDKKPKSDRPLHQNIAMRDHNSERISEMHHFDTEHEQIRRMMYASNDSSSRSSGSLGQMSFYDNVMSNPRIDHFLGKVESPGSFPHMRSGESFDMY
Description: protein-binding microarray (RPBM); PBS, 2% BSA, 51.3 ng/ul salmon testes DNA, 50 uM zinc acetate, 200 nM TF, 25 C, 1 h; high values mean tight binding. The note with it: protein: recombinant; tags: N-terminal polyhistidine and DsRed monomer fusion (pET32a); label: CyDye5-dUTP incorporated in the synthesized complementary strand; 3' TTTTT single-stranded linker to array surface; dsDNA, one strand shown. In outline: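 Polyhistidine-tagged DsRed fusions of transcription factors, joined at the N-terminus, were expressed in E. coli BL21-CodonPlus and isolated on Ni–NTA. They were incubated at 200 nM for 1 h at 25 °C on a custom Agilent array, double-stranded and BSA-blocked, in PBS with 2% BSA, salmon testes DNA and 50 µM zinc acetate. The binding signal is per-feature fluorescence intensity (arbitrary units) read on an Axon 4000B scanner after washing.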
Turning to “GCTAATCAAATCCATCATGAGAGACACGCTCCGCTGGACTCGGAGTCACCTAGTGCAG”, the binding signal was 8880 fluorescence intensity (a.u.). Turning to “CTTTGATCAAACTTCAAACACCCACTATCATCCGTCATCCCGGAGTCACCTAGTGCAG”, the binding signal is 3950 fluorescence intensity (a.u.). With “ATATAAATTAAGATTTTGAGGATACTGTTATTGAGATGGGCGGAGTCACCTAGTGCAG”, the binding signal is 9740 fluorescence intensity (a.u.). Regarding “GTGGTTGATTTGTTAGAGGTGGAGGCAGGTATTGTGGTGGCGGAGTCACCTAGTGCAG”, the binding signal was 33400 fluorescence intensity (a.u.). In the case of “TTGATTGCAGAGGATCCTGATCCGAAAATAACACACCCTACGGAGTCACCTAGTGCAG”, the binding signal was 10600 fluorescence intensity (a.u.). Next, “TGAAAGCATCCGGTAATTGGCAACTTTGAATGCATCGTTTCGGAGTCACCTAGTGCAG”: 9690 fluorescence intensity (a.u.). For “TAAAATTTATTCGAATTCTATCAACTTTCGTCGGTAACCGCGGAGTCACCTAGTGCAG”, the binding signal was 5270 fluorescence intensity (a.u.). Take “ATGCTTATTATCTCAATTAAAATCTGTCATTATGGGTGTGCGGAGTCACCTAGTGCAG”: the binding signal was 9600 fluorescence intensity (a.u.).

Regarding “TATTAAGCTAATTAGTCATCTAATTAGCTTTTGTAAGGCCCGGAGTCACCTAGTGCAG”, the binding signal is 31000 fluorescence intensity (a.u.). “CAACTAATTTTAGGTAAGTTATTTTCACTTTGAGCTGGAGCGGAGTCACCTAGTGCAG”: the binding signal is 18000 fluorescence intensity (a.u.). Next, “CCATTAATGACGAGAGGTTGGTGTCGTCTCACTCATTTATCGGAGTCACCTAGTGCAG”: 5490 fluorescence intensity (a.u.). The value for “AAGTTAAACTATTTTAAATTTGATTAAGTTTATGTACAAACGGAGTCACCTAGTGCAG” was 12700 fluorescence intensity (a.u.); that for “AAGAGGGTGGGTTGTTGGGGAGAGGGGAGGGAGGAGGATTCGGAGTCACCTAGTGCAG” was 6960 fluorescence intensity (a.u.); that for “TTGTAAATTACCTGCAAGGAAGAATTAACCAAGATGTCTTCGGAGTCACCTAGTGCAG” was 5040 fluorescence intensity (a.u.).

On to “TGACTGGATTTAGATAGACAAAGTGGAAGAATCGGATTGGCGGAGTCACCTAGTGCAG”, for which the binding signal is 9670 fluorescence intensity (a.u.). In the case of “TATATGATTATTAATTAGCCTTCCTGGGCAGTACCAATCTCGGAGTCACCTAGTGCAG”, the binding signal was 35000 fluorescence intensity (a.u.). As to “TTATCATTTGTTATCATTGATGAATGAGAAGCAGCAAAGTCGGAGTCACCTAGTGCAG”, the binding signal was 3610 fluorescence intensity (a.u.). Turning to “AGTCTAATAACAAAACAAATTATAGATTCCGCACGTAAATCGGAGTCACCTAGTGCAG”, the binding signal is 4800 fluorescence intensity (a.u.).

Regarding “CAAATCATGACTAGATTAGTAACCAAAAGCCATTGCAGCACGGAGTCACCTAGTGCAG”, the binding signal was 15000 fluorescence intensity (a.u.). Take “TAGATAATAGATCATATTGATTTCTACTTTTATAGTATAGCGGAGTCACCTAGTGCAG”: the binding signal is 21600 fluorescence intensity (a.u.).

“AGGAATTGAATACAAATGATAGGTTGTGGTTCCGTCACGACGGAGTCACCTAGTGCAG”: the binding signal is 16700 fluorescence intensity (a.u.). As for “ATAACACTGACAGGTAGATGTTACTCAAGACATTTCCGCACGGAGTCACCTAGTGCAG”, the binding signal was 13300 fluorescence intensity (a.u.). Next, “CTTGGATTAATTTACGCCATAAAATTCCACAGAAATAACTCGGAGTCACCTAGTGCAG”: 17100 fluorescence intensity (a.u.); “CTAAACTAATAAAGAGAGATTTACGTATGCATAGTATTCTCGGAGTCACCTAGTGCAG”: 5730 fluorescence intensity (a.u.); “AGAGTTAATTTGGAAAGGGATAGTTTTGAGTGCTTATGGGCGGAGTCACCTAGTGCAG”: 12600 fluorescence intensity (a.u.). Next, “AATTTGATTGATTTTACTCTCGAGCCAATTGAGATGTCTGCGGAGTCACCTAGTGCAG”: 64800 fluorescence intensity (a.u.); “TGTAAGGGCAAGCTAATTGACTGACAGCTTTTAGTTCACACGGAGTCACCTAGTGCAG”: 21100 fluorescence intensity (a.u.); “CCAATATATTTGTCAGTTTCAATTTACAGTTTTACACGTTCGGAGTCACCTAGTGCAG”: 4050 fluorescence intensity (a.u.). Consider “CTGATTGCGCGCGCGCCTCCCTGCGCGGCTGATCGCGTATCGGAGTCACCTAGTGCAG”, for which the binding signal is 5260 fluorescence intensity (a.u.). Turning to “CATGGTGAATTGGTGATTTTATAATGATGCTAAGCTTTGACGGAGTCACCTAGTGCAG”, the binding signal is 4860 fluorescence intensity (a.u.). For the sequence “TCTCAATTTTCGTAGATAATGAAAATGGTTTACACAACGTCGGAGTCACCTAGTGCAG”, the binding signal is 5050 fluorescence intensity (a.u.).

Turning to “TGGTGGAAGGGGATTGATGATGGGAAGGACAGCCACAGGGCGGAGTCACCTAGTGCAG”, the binding signal was 7220 fluorescence intensity (a.u.). Take “GCCTAGCTAATCAATTAACTTAACCTGCCTCGCCTCTGCCCGGAGTCACCTAGTGCAG”: the binding signal was 26300 fluorescence intensity (a.u.).

Consider “GCAACAAATTTCTCTTGATTGATTTGATCTAACAACAGAACGGAGTCACCTAGTGCAG”, for which the binding signal was 37800 fluorescence intensity (a.u.). As for “TTTAATCTGTTATTAGTCATCCATCACAATCCAAGCAAGTCGGAGTCACCTAGTGCAG”, the binding signal is 5200 fluorescence intensity (a.u.). With “ACAAATTGCCAACTCATGAAAGTGATCGATGATGGGCTTACGGAGTCACCTAGTGCAG”, the binding signal is 15700 fluorescence intensity (a.u.).

For “AATACTAATTATAAGAAAATTAAATAAAATAGATGATGAACGGAGTCACCTAGTGCAG”, the binding signal was 17800 fluorescence intensity (a.u.). Next, “ATGATATATATTGATAAGGTATACCCTCACGTATACGGTTCGGAGTCACCTAGTGCAG”: 6790 fluorescence intensity (a.u.); “TAAACTATAATTAGATTTTCTTTTGGACAAGGAGATTAGACGGAGTCACCTAGTGCAG”: 17200 fluorescence intensity (a.u.); “ATGGCTAATTTCAGATTAATAAGTGAAATATTACCATGACCGGAGTCACCTAGTGCAG”: 5970 fluorescence intensity (a.u.). In the case of “TTATAATGGCCACTAATTTACTGGACAGCTGTTATACTTCCGGAGTCACCTAGTGCAG”, the binding signal was 20200 fluorescence intensity (a.u.).

Turning to “CCTTGTAATTTCTTCCTCCTGACTCCACCTGCAACATTGCCGGAGTCACCTAGTGCAG”, the binding signal was 6670 fluorescence intensity (a.u.). As to “TACCAAATTGCTCTTGCTTATAGCCATATTTGTGTGTGTACGGAGTCACCTAGTGCAG”, the binding signal is 3150 fluorescence intensity (a.u.).

Consider “GATGAATCATTAGCACATAATTAATTAAGTATTAATTATTCGGAGTCACCTAGTGCAG”, for which the binding signal is 15700 fluorescence intensity (a.u.). On to “AATCAATCTAGTTTTAATCCTAGAGTATCTAAAGTAGTGACGGAGTCACCTAGTGCAG”, for which the binding signal is 12400 fluorescence intensity (a.u.). For the sequence “CACAATTAATGCATGCGTTTAGAAAACAAAATGGTAACACCGGAGTCACCTAGTGCAG”, the binding signal is 3700 fluorescence intensity (a.u.). As to “GTTTTGAAGATTTAATTGCAATGAATTTAATGGTGTAATCCGGAGTCACCTAGTGCAG”, the binding signal is 12100 fluorescence intensity (a.u.).

Turning to “CCCTCCAATCAAATTAACCTCCATATCTCTAGCAATCTGCCGGAGTCACCTAGTGCAG”, the binding signal is 29800 fluorescence intensity (a.u.). Take “CAATTCAATCTGCCAAAACTGAAATTTTGACCTTGTTTTACGGAGTCACCTAGTGCAG”: the binding signal was 7360 fluorescence intensity (a.u.). Next, “AAGTGGTTAACGAACTAATCAGGTTGGCATTGCAACGTCACGGAGTCACCTAGTGCAG”: 3290 fluorescence intensity (a.u.); “ATTTAATTATTTTCCTACAAGTCGAAGGAGCTCGTATAGGCGGAGTCACCTAGTGCAG”: 29700 fluorescence intensity (a.u.); “TAGCCAAACAGGAACAAATTGATCCACGATGGATCAATGGCGGAGTCACCTAGTGCAG”: 12000 fluorescence intensity (a.u.). With “GTTTCTAGGTAGATTTATAATAAATTTACATACATATTTTCGGAGTCACCTAGTGCAG”, the binding signal was 4570 fluorescence intensity (a.u.). Turning to “CTGGATGATTGGATTGATTATGGACAGATTTAAATTTGCTCGGAGTCACCTAGTGCAG”, the binding signal is 65500 fluorescence intensity (a.u.).
